# Source: the supplement of paper PMC8728848
# Some of the results follow.
# B1: GS13455A-bfa-343-25-343 (Bacteroides fragilis) (protein)
# chain: KDEIQIVDQDTSWQMDNKYIEEDIREQLGIDPFTDLVYLGYYGNPYTQLEAINDLVNTTLVGKNELSFKVKVTKPYKEDIKVNLMKEDKLVTDFPEMAEGIPLFPSENCTFEGGVLKAGELETTVKLTLKDVEKLNNLSGYVMAIKLTMEGSHEHLAIARTRSSYFVKLNLSIRLDNIDSSNKKIEGKGFNKEISFKSDIRPDKLGSLNDGNFTANNWYTSNANNYLTIILPEKQSLKGFRLDTNTSPSGSYMLKSCRVMVETPDGNWVNHGVFDRKSMDGIAYISFKKPVECTKVRFENMMAFNGRFSVDVNEVTAFR
# Assays:
# Experiment in all cases: glycan array binding signal (z-score within array); higher = stronger binding
# Details in all cases: glycan notation: IUPAC condensed, linker removed
# [1] = molecular target: Gal(b1-4)GlcNAc(b1-3)Gal(b1-4)GlcNAc(b1-3)Gal(b1-4)GlcNAc(b1-2)Man(a1-3)[Gal(b1-4)GlcNAc(b1-3)Gal(b1-4)GlcNAc(b1-3)Gal(b1-4)GlcNAc(b1-2)Man(a1-6)]Man(b1-4)GlcNAc(b1-4)GlcNAc
# How it was run: (§1)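 Negative Z-scores can be read as non-binding. The Z-score is calculated within each array and then averaged across arrays of one protein sequence at different concentrations or buffers and across linkers. Arrays, 3228 in all, were curated from the Consortium for Functional Glycomics database and kept only where the protein sequence was available.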
# [2] = molecular target: Gal(b1-4)GlcNAc(b1-3)Gal(b1-4)GlcNAc(b1-3)Gal(b1-4)GlcNAc(b1-2)Man(a1-3)[Gal(b1-4)GlcNAc(b1-3)Gal(b1-4)GlcNAc(b1-3)Gal(b1-4)GlcNAc(b1-2)Man(a1-6)]Man(b1-4)GlcNAc(b1-4)[Fuc(a1-6)]GlcNAc
# How it was run: as §1
# [3] = molecular target: Gal(b1-4)GlcNAc(b1-3)Gal(b1-4)GlcNAc(b1-3)Gal(b1-4)GlcNAc(b1-2)[Gal(b1-4)GlcNAc(b1-3)Gal(b1-4)GlcNAc(b1-3)Gal(b1-4)GlcNAc(b1-6)]Man(a1-6)[Gal(b1-4)GlcNAc(b1-3)Gal(b1-4)GlcNAc(b1-3)Gal(b1-4)GlcNAc(b1-2)Man(a1-3)]Man(b1-4)GlcNAc(b1-4)[Fuc(a1-6)]GlcNAc
# How it was run: as §1
# [4] = molecular target: Gal(b1-4)GlcNAc(b1-3)Gal(b1-4)GlcNAc(b1-3)Gal(b1-4)GlcNAc(b1-3)Gal(b1-4)GlcNAc(b1-2)Man(a1-3)[Gal(b1-4)GlcNAc(b1-3)Gal(b1-4)GlcNAc(b1-3)Gal(b1-4)GlcNAc(b1-3)Gal(b1-4)GlcNAc(b1-2)Man(a1-6)]Man(b1-4)GlcNAc(b1-4)GlcNAc
# How it was run: as §1
# [5] = molecular target: Gal(b1-4)GlcNAc(b1-3)Gal(b1-4)GlcNAc(b1-3)Gal(b1-4)GlcNAc(b1-3)Gal(b1-4)GlcNAc(b1-2)Man(a1-3)[Gal(b1-4)GlcNAc(b1-3)Gal(b1-4)GlcNAc(b1-3)Gal(b1-4)GlcNAc(b1-3)Gal(b1-4)GlcNAc(b1-2)Man(a1-6)]Man(b1-4)GlcNAc(b1-4)[Fuc(a1-6)]GlcNAc
# How it was run: as §1
# [6] = molecular target: Gal(b1-4)GlcNAc(b1-3)Gal(b1-4)GlcNAc(b1-3)Gal(b1-4)GlcNAc(b1-3)Gal(b1-4)GlcNAc(b1-2)[Gal(b1-4)GlcNAc(b1-3)Gal(b1-4)GlcNAc(b1-3)Gal(b1-4)GlcNAc(b1-3)Gal(b1-4)GlcNAc(b1-6)]Man(a1-6)[Gal(b1-4)GlcNAc(b1-3)Gal(b1-4)GlcNAc(b1-3)Gal(b1-4)GlcNAc(b1-3)Gal(b1-4)GlcNAc(b1-2)Man(a1-3)]Man(b1-4)GlcNAc(b1-4)[Fuc(a1-6)]GlcNAc
# How it was run: as §1
# [7] = molecular target: Gal(b1-4)GlcNAc(b1-3)Gal(b1-4)GlcNAc(b1-3)Gal(b1-4)GlcNAc(b1-3)Gal(b1-4)GlcNAc(b1-3)Gal(b1-4)GlcNAc(b1-2)Man(a1-3)[Gal(b1-4)GlcNAc(b1-3)Gal(b1-4)GlcNAc(b1-3)Gal(b1-4)GlcNAc(b1-3)Gal(b1-4)GlcNAc(b1-3)Gal(b1-4)GlcNAc(b1-2)Man(a1-6)]Man(b1-4)GlcNAc(b1-4)GlcNAc
# How it was run: as §1
# [8] = molecular target: Gal(b1-4)GlcNAc(b1-3)Gal(b1-4)GlcNAc(b1-3)Gal(b1-4)GlcNAc(b1-3)Gal(b1-4)GlcNAc(b1-3)Gal(b1-4)GlcNAc(b1-2)Man(a1-3)[Gal(b1-4)GlcNAc(b1-3)Gal(b1-4)GlcNAc(b1-3)Gal(b1-4)GlcNAc(b1-3)Gal(b1-4)GlcNAc(b1-3)Gal(b1-4)GlcNAc(b1-2)Man(a1-6)]Man(b1-4)GlcNAc(b1-4)[Fuc(a1-6)]GlcNAc
# How it was run: as §1
# [9] = molecular target: Gal(b1-4)GlcNAc(b1-3)Gal(b1-4)GlcNAc(b1-3)Gal(b1-4)GlcNAc(b1-3)Gal(b1-4)GlcNAc(b1-3)Gal(b1-4)GlcNAc(b1-2)[Gal(b1-4)GlcNAc(b1-3)Gal(b1-4)GlcNAc(b1-3)Gal(b1-4)GlcNAc(b1-3)Gal(b1-4)GlcNAc(b1-3)Gal(b1-4)GlcNAc(b1-6)]Man(a1-6)[Gal(b1-4)GlcNAc(b1-3)Gal(b1-4)GlcNAc(b1-3)Gal(b1-4)GlcNAc(b1-3)Gal(b1-4)GlcNAc(b1-3)Gal(b1-4)GlcNAc(b1-2)Man(a1-3)]Man(b1-4)GlcNAc(b1-4)[Fuc(a1-6)]GlcNAc
# How it was run: as §1
# [10] = molecular target: Gal(b1-4)GlcNAc(b1-3)Gal(b1-4)GlcNAc(b1-3)Gal(b1-4)GlcNAc(b1-3)Gal(b1-4)GlcNAc(b1-3)Gal(b1-4)GlcNAc(b1-3)Gal(b1-4)GlcNAc(b1-2)Man(a1-3)[Gal(b1-4)GlcNAc(b1-3)Gal(b1-4)GlcNAc(b1-3)Gal(b1-4)GlcNAc(b1-3)Gal(b1-4)GlcNAc(b1-3)Gal(b1-4)GlcNAc(b1-3)Gal(b1-4)GlcNAc(b1-2)Man(a1-6)]Man(b1-4)GlcNAc(b1-4)GlcNAc
# How it was run: as §1
# [11] = molecular target: Gal(b1-4)GlcNAc(b1-3)Gal(b1-4)GlcNAc(b1-3)GalNAc
# How it was run: as §1
# [12] = molecular target: Gal(b1-4)GlcNAc(b1-3)Gal(b1-4)GlcNAc(b1-3)[Gal(b1-4)GlcNAc(b1-3)Gal(b1-4)GlcNAc(b1-6)]GalNAc
# How it was run: as §1
# [13] = molecular target: Gal(b1-4)GlcNAc(b1-3)Gal(b1-4)GlcNAc(b1-6)[Gal(b1-3)]GalNAc
# How it was run: as §1
# [14] = molecular target: Gal(b1-4)GlcNAc(b1-3)Gal(b1-4)[Fuc(a1-3)]GlcNAc(b1-3)Gal(b1-4)[Fuc(a1-3)]GlcNAc
# How it was run: as §1
# [15] = molecular target: Gal(b1-4)GlcNAc(b1-3)GalNAc
# How it was run: as §1
# [16] = molecular target: Gal(b1-4)GlcNAc(b1-3)[Fuc(a1-3)GlcNAc(b1-6)]Gal(b1-4)Glc
# How it was run: as §1
# [17] = molecular target: Gal(b1-4)GlcNAc(b1-3)[Gal(b1-4)GlcNAc(b1-6)]Gal(b1-4)GlcNAc
# How it was run: as §1
# [18] = molecular target: Gal(b1-4)GlcNAc(b1-3)[GlcNAc(b1-6)]Gal(b1-4)GlcNAc
# How it was run: as §1
# [19] = molecular target: Gal(b1-4)GlcNAc(b1-6)Gal(b1-4)GlcNAc
# How it was run: as §1
binder,measurement,setting,value
B1,glycan array binding signal (z-score),[1],0.782
same,glycan array binding signal (z-score),[2],-0.075
same,glycan array binding signal (z-score),[3],0.013
same,glycan array binding signal (z-score),[4],1.37
same,glycan array binding signal (z-score),[5],-0.293
same,glycan array binding signal (z-score),[6],0.144
same,glycan array binding signal (z-score),[7],0.003
same,glycan array binding signal (z-score),[8],1.07
same,glycan array binding signal (z-score),[9],0.513
same,glycan array binding signal (z-score),[10],-0.084
same,glycan array binding signal (z-score),[11],-0.065
same,glycan array binding signal (z-score),[12],-0.047
same,glycan array binding signal (z-score),[13],-0.023
same,glycan array binding signal (z-score),[14],-0.07
same,glycan array binding signal (z-score),[15],-0.395
same,glycan array binding signal (z-score),[16],-0.429
same,glycan array binding signal (z-score),[17],0.03
same,glycan array binding signal (z-score),[18],-0.425
same,glycan array binding signal (z-score),[19],0.122
